# Test results taken from PubChem BioAssay (NCATS).
# The inconclusive results got no clear call from the source; some entries with a clear call stand among them for comparison. For some of these results: Potencies of inconclusive entries are doubtful fits and often do not repeat. Activity calls are given as the source filed them. Unless noted, calls come from the whole dose curve; as a rule, active = well fitted curve in the direction sought with a large enough effect; inconclusive = small, poorly fitted or top-dose-only effect, or another doubt; inactive = no such curve, though single readings can be large; an effect the other way counts as inactive or inconclusive.
# How the values were obtained:
# [1] = Primary qHTS for inhibitors of nuclear receptor binding SET domain protein 2 (NSD2) in an RCH-ACV wild type WT cells (2C) (AID 1645877); conditions: activity change, negative = cell killing: at 44.9 µM (top of the series) unless noted; note: nearly all actives have a fitted effect of over 70% in size; note: potency is the fitted concentration of half-maximal effect; for activity change, negative = cell killing: % is set by controls: 0 for no effect and ±100 for the full control effect
# [2] = Primary fluorescence-based thiol-reactive (MSTI) qHTS assay for identification of artifact compounds. (AID 1845221);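 note: potency is the fitted concentration of half-maximal effect; thiol-reactive compounds lower the probe fluorescence signal; nearly all actives have a fitted effect of over 65% in size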
# How it was run: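 One-hour, room-temperature, dark incubation of compound with 4 uM MSTI in PBS (pH 7.4, 2% DMSO) precedes a fluorescence read at 525 nm excitation, 598 nm emission; Hill-equation fitting yields concentration-response values.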
# NIH3T3 = assay: Cytotoxic Profiling of Annotated Libraries Using Quantitative High-Throughput Screening (AID 1296008); conditions: Five cell lines viability, CellTiter-Glo ATP luminescence, 48-72 h; max response: active compounds read low; note: nearly all actives have a fitted effect of over 60% in size; note: potency is the fitted concentration of half-maximal effect
# How it was run: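 Compounds were pin-transferred onto cells and incubated 48 or 72 hr at 37 degree Celsius, 95% humidity. CellTiter-Glo was added, plates sat 10 min at room temperature, then ATP-coupled luminescence was imaged as the viability read-out.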
# C33A = assay: Primary qHTS to identify gynecologic anti-cancer compounds using libraries of approved drugs and bioactive compounds (AID 1345084); conditions: Gynecologic cancer cell panel viability, ATPlite luminescence, 48 h; series mostly up to 57.5 µM; note: nearly all actives have a fitted effect of over 55% in size; note: potency is the fitted concentration of half-maximal effect; for activity change, negative = cytotoxicity: % is set by controls: 0 for no effect and ±100 for the full control effect
# How it was run: (§1)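 In this quantitative HTS, cell killing is estimated from loss of ATP-dependent luciferase light. Cells see five compound concentrations over a 48 h exposure.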
# SKOV3 = assay: as above; conditions: Gynecologic cancer cell panel viability, ATPlite luminescence, 48 h; series mostly up to 57.5 µM
# How it was run: as §1
# Tov-21-G = assay: as above; conditions: Gynecologic cancer cell panel viability, ATPlite luminescence, 48 h; activity change, negative = cytotoxicity: at 57.5 µM (top of the series) unless noted
# How it was run: as §1
# CAOV3 = assay: as above; conditions: Gynecologic cancer cell panel viability, ATPlite luminescence, 48 h; activity change, negative = cytotoxicity: at 57.5 µM (top of the series)
# How it was run: as §1
# [3] = test system: Zika virus NS2B-NS3 protease (unlinked complex); assay: Primary screen GU Rhodamine qHTS for Zika virus inhibitors: Unlinked NS2B-NS3 protease assay (AID 1347159); note: nearly all actives have a fitted effect of over 60% in size; note: potency is the fitted concentration of half-maximal effect
# How it was run: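 Noncovalent NS2B hydrophilic domain/NS3 protease complex (25 nM final) in 10 mM Tris-HCl pH 8.0, 0.01% Tween 20, preincubated 15 min with compounds (up to 114 microM), then 1.5 microM Rhodamine110 substrate. Fluorescence change over 15 min fitted to 4-parameter Hill.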
# OV90 = assay: Primary qHTS to identify gynecologic anti-cancer compounds using libraries of approved drugs and bioactive compounds (AID 1345084); conditions: Gynecologic cancer cell panel viability, ATPlite luminescence, 48 h; series mostly up to 57.5 µM; note: nearly all actives have a fitted effect of over 55% in size; note: potency is the fitted concentration of half-maximal effect; for activity change, negative = cytotoxicity: % is set by controls: 0 for no effect and ±100 for the full control effect
# How it was run: as §1
# [4] = Primary redox qHTS assay for identification of artifact compounds. (AID 1845223); conditions: Amplex Red/HRP redox cycling with DTT, fluorescence; redox activity (% of DA3003): at 53.8 µM (top of the series);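 note: 0% = DMSO and 100% = reference compound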
# How it was run: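 Amplex Red (25 uM) and HRP (250 mU/mL) in HBSS, with compounds for 15 min, then 250 uM DTT for 30 min, room temperature, dark. Fluorescence 525/598 nm read; normalized to DMSO and 10 uM DA3003; Hill fit.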
# [5] = P-glycoprotein substrates identified in KB-8-5-11 adenocarcinoma cell line, qHTS therapeutic library screen (AID 1346987); note: nearly all actives have a fitted effect of over 65% in size; note: potency is the fitted concentration of half-maximal effect
# How it was run: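 KB-8-5-11: colchicine-selected sub-line of KB-3-1 over-expressing P-gp; assay medium lacked colchicine. 72 h drug exposure at 37 degree C, CellTiter-Glo.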
# [6] = Primary qHTS for inhibitors of nuclear receptor binding SET domain protein 2 (NSD2) in an isogenic RCH-ACV NSD2 p.E1099K mutant (9B) (AID 1645876); note: nearly all actives have a fitted effect of over 70% in size; note: potency is the fitted concentration of half-maximal effect
# Tov112D = assay: Primary qHTS to identify gynecologic anti-cancer compounds using libraries of approved drugs and bioactive compounds (AID 1345084); conditions: Gynecologic cancer cell panel viability, ATPlite luminescence, 48 h; series mostly up to 57.5 µM; note: nearly all actives have a fitted effect of over 55% in size; note: potency is the fitted concentration of half-maximal effect; for activity change, negative = cytotoxicity: % is set by controls: 0 for no effect and ±100 for the full control effect
# How it was run: as §1
# [7] = molecular target: Cytochrome P450 2D6 (Homo sapiens) (UniProt P10635); assay: Cytochrome P450 family 2 subfamily D member 6 (CYP2D6) small molecule antagonists: luciferase biochemical (cell-free) qHTS assay (AID 1645840; active = well fitted curve in the direction sought with a large enough effect in the repeat runs; inconclusive = weak or mixed curves; inactive = no such curve, though single readings can be large; an effect the other way counts as inactive or inconclusive; note: nearly all actives have a fitted effect of over 55% in size; note: potency is the fitted concentration of half-maximal effect)
# How it was run: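 P450-Glo luminescent screen: recombinant CYP2D6 enzyme–proluciferin substrate mix preincubated with compound 10 min at room temperature, then NADPH regeneration added for 1 h at room temperature. Detection reagent added for 20 min; luciferin light read as relative luminescence units.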
# Es-2 = assay: Primary qHTS to identify gynecologic anti-cancer compounds using libraries of approved drugs and bioactive compounds (AID 1345084); conditions: Gynecologic cancer cell panel viability, ATPlite luminescence, 48 h; series mostly up to 57.5 µM; note: nearly all actives have a fitted effect of over 55% in size; note: potency is the fitted concentration of half-maximal effect
# How it was run: as §1
# Hek293T = assay: as above; conditions: Gynecologic cancer cell panel viability, ATPlite luminescence, 48 h, control line for the selectivity index; activity change, negative = cytotoxicity: at 57.5 µM (top of the series) unless noted
# How it was run: as §1
# PA-1 = assay: as above; conditions: Gynecologic cancer cell panel viability, ATPlite luminescence, 48 h; series mostly up to 57.5 µM
# How it was run: as §1
# [8] = Primary qHTS for small molecule stabilizers of the endoplasmic reticulum resident proteome: Secreted ER Calcium Modulated Protein (SERCaMP) assay (AID 1508630); conditions: SH-SY5Y GLuc-SERCaMP (Gaussia luciferase released on ER calcium loss) secretion, thapsigargin, luminescence; activity change, negative = inhibition: at 38.4 µM (top of the series) unless noted; note: potency is the fitted concentration of half-maximal effect
# How it was run: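 GLuc-SERCaMP-expressing SH-SY5Y cells, pretreated 16 h with compound, are challenged with thapsigargin to empty ER calcium stores; after 4 h, coelenterazine is added directly to the medium and luminescence is imaged.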
# CASKI = assay: Primary qHTS to identify gynecologic anti-cancer compounds using libraries of approved drugs and bioactive compounds (AID 1345084); conditions: Gynecologic cancer cell panel viability, ATPlite luminescence, 48 h; series mostly up to 57.5 µM; note: nearly all actives have a fitted effect of over 55% in size; note: potency is the fitted concentration of half-maximal effect
# How it was run: as §1
# HeLa = assay: as above; conditions: Gynecologic cancer cell panel viability, ATPlite luminescence, 48 h; activity change, negative = cytotoxicity: at 57.5 µM (top of the series)
# How it was run: as §1
# Tags give direction and shape of the fitted curve.
# Sequence of UniProt P10635 (P10635 whole entry, looked up): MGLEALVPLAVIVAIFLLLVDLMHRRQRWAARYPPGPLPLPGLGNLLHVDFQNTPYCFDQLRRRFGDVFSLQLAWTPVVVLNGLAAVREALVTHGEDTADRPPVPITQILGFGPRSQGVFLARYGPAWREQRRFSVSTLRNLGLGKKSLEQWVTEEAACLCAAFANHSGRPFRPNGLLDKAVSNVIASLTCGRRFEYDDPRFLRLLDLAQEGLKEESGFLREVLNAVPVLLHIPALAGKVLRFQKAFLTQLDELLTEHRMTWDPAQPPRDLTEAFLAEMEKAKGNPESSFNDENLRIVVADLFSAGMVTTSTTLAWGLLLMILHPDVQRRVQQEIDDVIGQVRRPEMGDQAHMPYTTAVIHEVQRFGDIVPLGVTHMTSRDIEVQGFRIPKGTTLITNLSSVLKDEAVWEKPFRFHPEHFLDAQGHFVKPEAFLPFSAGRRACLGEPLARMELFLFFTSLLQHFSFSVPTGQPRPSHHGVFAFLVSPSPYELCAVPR
smiles,measurement,setting,value
Nc1c(-c2ccccc2)nc(Cl)c2c(O)n[nH]c(=O)c12,Potency,[1],inactive
same,Potency,[2],"inconclusive: 23.8 µM [inhibitor, partial curve]"
same,outcome,NIH3T3,inactive
same,Potency,C33A,inactive
same,Potency,SKOV3,"inconclusive: 1 µM [rising, full curve]"
same,Potency,Tov-21-G,inactive
O=C(/C=C/c1ccc(O)cc1)OC[C@H]1O[C@H](O[C@@]2(CO)O[C@@H](CO)[C@H](O)[C@H]2O)[C@H](O)[C@@H](O)[C@@H]1O,Potency,[2],"inconclusive: 13 µM [inhibitor, single point]"
same,max response,NIH3T3,inactive: -0.438%
same,Potency,CAOV3,"inconclusive: 3.98 µM [cytotoxic, single point]"
same,Potency,SKOV3,"inconclusive: 0.199 µM [rising, partial curve, poor fit]"
O=C(Cc1ccc(-c2ccccc2)cc1)NC1CCC1,Potency,[3],inactive
same,Potency,[1],inactive
same,Potency,NIH3T3,"inconclusive: 18.4 µM [inhibitor, partial curve, poor fit]"
same,Potency,CAOV3,inactive
same,Potency,OV90,inactive
same,Potency,SKOV3,"inconclusive: 35.5 µM [rising, single point]"
C/C1=C\CCC(C)CCO[C@@H]2O[C@H](CO[C@@H]3OC[C@H](O)[C@H](O)[C@H]3OC1=O)[C@@H](O)[C@H](O)[C@H]2O (stereo not given in full),Potency,[3],active: 31.6 µM
same,Potency,[2],active: 8.22 µM
same,Potency,[4],inactive
same,max response,NIH3T3,inactive: -2.67%
same,Potency,CAOV3,"inconclusive: 0.631 µM [rising, full curve, poor fit]"
same,Potency,SKOV3,inactive
O=C(Nc1ccc2c(c1)CCN(Cc1ncn[nH]1)C2)c1ccccc1-c1ccc(C(F)(F)F)cc1,Potency,[5],inactive
same,Potency,[6],inactive
same,Potency,[1],"inconclusive: 25.8 µM [inhibitor, partial curve, poor fit]"
same,max response,NIH3T3,inconclusive: -32% [inhibitor]
same,Potency,C33A,"inconclusive: 28.2 µM [rising, partial curve, poor fit]"
same,Potency,SKOV3,"inconclusive: 28.2 µM [cytotoxic, single point]"
same,Potency,Tov112D,inactive
N#Cc1ccc2[nH]cc(CCCCN3CCN(c4ccc5oc(C(N)=O)cc5c4)CC3)c2c1,Potency,[5],"inconclusive: 20.6 µM [inhibitor, single point]"
same,Potency,[7],active: 4.77 µM
same,Potency,NIH3T3,"inconclusive: 20.6 µM [inhibitor, partial curve, poor fit]"
same,Potency,C33A,inactive
same,Potency,SKOV3,inactive
CC(=O)OC1CCC2(C)C(CCC3(C)C2CC=C2C4CC(C)(C)CCC4(C)CCC23C)C1(C)C(=O)O (stereo not given),Potency,[5],inactive
same,Potency,[3],active: 7.08 µM
same,Potency,[1],inactive
same,max response,NIH3T3,inactive: 3.68%
same,Potency,CAOV3,"inconclusive: 3.98 µM [cytotoxic, single point]"
COc1cc(Cc2cnc(N)nc2N)c(C(C)C)cc1OC,Potency,[7],inactive
same,Potency,[6],"inconclusive: 18.3 µM [inhibitor, single point]"
same,Potency,[1],"inconclusive: 16.3 µM [inhibitor, single point]"
same,max response,NIH3T3,inactive: 3.87%
same,Potency,CAOV3,inactive
same,Potency,OV90,"inconclusive: 15.8 µM [cytotoxic, partial curve, poor fit]"
same,Potency,SKOV3,inactive
same,Potency,Tov112D,inactive
O=C1C=CC2OC(c3ccccc3)C(O)C2O1 (stereo not given),Potency,[5],"inconclusive: 25.9 µM [inhibitor, single point]"
same,Potency,NIH3T3,"inconclusive: 29.1 µM [inhibitor, single point]"
same,Potency,CAOV3,"inconclusive: 39.8 µM [cytotoxic, single point]"
same,Potency,Es-2,"inconclusive: 35.5 µM [cytotoxic, single point]"
same,Potency,Hek293T,"inconclusive: 31.6 µM [cytotoxic, single point]"
same,Potency,OV90,inactive
same,Potency,PA-1,"inconclusive: 7.08 µM [cytotoxic, partial curve, poor fit]"
same,Potency,Tov-21-G,"inconclusive: 28.2 µM [cytotoxic, single point]"
Cc1onc(-c2ccccc2)c1C(=O)Cl,Potency,[8],"inconclusive: 35.5 µM [inhibitor, partial curve, poor fit]"
same,Potency,[6],"inconclusive: 18.8 µM [inhibitor, partial curve, poor fit]"
same,Potency,[1],"inconclusive: 29.9 µM [inhibitor, single point]"
same,max response,NIH3T3,inactive: 4.1%
same,Potency,C33A,inactive
same,Potency,PA-1,inactive
same,Potency,Tov112D,inactive
Cc1nc(NC(=O)N2CCCC2C(N)=O)sc1-c1csc(C(C)(C)C)n1 (stereo not given),Potency,[5],"inconclusive: 23.1 µM [inhibitor, single point]"
same,Potency,[7],"inconclusive: 23.9 µM [inhibitor, partial curve, poor fit]"
same,Potency,NIH3T3,"inconclusive: 18.4 µM [inhibitor, single point]"
same,Potency,CAOV3,inactive
same,Potency,CASKI,"inconclusive: 8.91 µM [cytotoxic, partial curve]"
same,Potency,HeLa,inconclusive: 8.91 µM
same,Potency,PA-1,"inconclusive: 8.91 µM [cytotoxic, single point]"
same,Potency,SKOV3,active: 3.16 µM
